The values that follow come from publication PMC10726135.

The list shows a part of the results. At the low end of the ranking the order means little. The protein was read in a cell extract, so binding may be indirect.

This test concerns the target T1, HNF4alpha8 (COS-7 nuclear extract) (UniProt P41235-5).
T1 sequence: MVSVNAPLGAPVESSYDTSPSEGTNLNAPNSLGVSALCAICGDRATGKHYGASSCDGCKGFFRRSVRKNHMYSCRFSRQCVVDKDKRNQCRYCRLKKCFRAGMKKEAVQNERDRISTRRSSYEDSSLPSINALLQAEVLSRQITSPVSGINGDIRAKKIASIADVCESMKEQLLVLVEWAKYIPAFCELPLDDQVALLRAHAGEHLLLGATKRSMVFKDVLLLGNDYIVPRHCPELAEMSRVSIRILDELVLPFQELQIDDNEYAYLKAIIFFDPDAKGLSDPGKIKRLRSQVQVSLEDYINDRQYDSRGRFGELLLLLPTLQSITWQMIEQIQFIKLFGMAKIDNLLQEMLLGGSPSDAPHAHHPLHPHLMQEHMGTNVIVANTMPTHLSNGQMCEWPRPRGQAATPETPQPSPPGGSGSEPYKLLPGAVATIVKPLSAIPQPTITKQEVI
Nature of the test: protein-binding microarray. Conditions: COS-7 nuclear extract on double-stranded Agilent 4x180k PBM; binding buffer, salt, pH and temperature not given; high values mean tight binding; double strand, one strand shown; sequences stand for … in …GCCTAGGGAGATTAGAGTATCGGTCGA
For the sequence CATTTGGAGAGAGTTTGGCCCCAGTTCCCA, the binding signal (log2 normalized intensity) is 1.91. Regarding TGCTGCTCTAGATGAGGGGGAAAGGGGTTG, the binding signal (log2 normalized intensity) is -1.42.

With TTCTTAACAAGCTGAGCACCAGAAACCTGC, the binding signal (log2 normalized intensity) was -1.36. As for CTGCATGAAAGTTCTCTGGGCTTTTTGATC, the figure is 1.79; as for GATCTGGGTTTGACCGTTCTCTCCGGGTAA, 1.08; as for TTAGGAAACCTGGTAGCGTGTAGTAAAGCT, -1.3. As for AACCAAAGTAGAGGAATGCTGGTAAACACT, the figure is -1.27. ACTGACCTTGTTGCCCACCCCCCAAGTAGA: the binding signal (log2 normalized intensity) amounted to 6. As to TCATGGAGGTGTGGGGAGTTCCTTCAGACC, the binding signal (log2 normalized intensity) was -1.18. As for TGAAGGGCAGGGTTGGCTGTGGCAATTCCT, the figure is -1.12. Regarding CAGCATTCCATTCATTTTAGACATAACAGT, the binding signal (log2 normalized intensity) is 1.33.

Consider TCCAAAAAGAATCAGTTACAAGTTAATTTC, for which the binding signal (log2 normalized intensity) is -1.44.

With CACACAGACTTGGGTTCAAAGAGCACATTC, the binding signal (log2 normalized intensity) amounted to 4.13.

As to CTCCCAAATCTTCTTTAAGCTATGTGGTGG, the binding signal (log2 normalized intensity) came to 0.933.

In the case of CCTGATGGGATGAGAGAGCCCCTGTGATAC, the binding signal (log2 normalized intensity) is 2.15. In the case of CTGAGCATACAGAACCCATGCTCTTTGGCC, the binding signal (log2 normalized intensity) amounted to 3.91. As for AGCTGGTTTGAAGAATGTGGTCTGGTCATG, the binding signal (log2 normalized intensity) was 1.69. As for TTGCCAGTTCCCATTTGCGCTGGTTTTATG, the figure is 1.65; as for TTTAAGGTCACATGCCTAGGTAAGCCCACT, -1.08. On to CTTGCAATGAGGCGACATCAAAGCATTTGG, for which the binding signal (log2 normalized intensity) was -1.25. As for AGCTATTGCGAGGTTCCATGGTGTAATGGT, the figure is 1.81; as for GGCCACCTTTGGCCGAAACTCAGTGATTGG, 1.42. For TTGGTAATCCTGCTCCTTCTGAATCTGTTC, the binding signal (log2 normalized intensity) worked out at 1.11.

Take AGTAGCTAGGAGACAACTTAGAATTTCATT: the binding signal (log2 normalized intensity) is -1.27. As for AGGACAGACTTTGGACCTGGCCCTCTGGGT, the figure is 5.3; as for AACTCCCCCTGCCCCCAGGTAGAGAGCAAT, 4.35; as for AGGGTCACAAGGATCCCATTCATGTGGGTC, 0.887. Turning to ACACTTCCCAAGCATGTTTGGTGACCCGTG, the binding signal (log2 normalized intensity) was found to be 3.57. As for AGTGTGAGTGTCAGAGGCTAAACCTAGCCC, the figure is -1.45; as for CTGCCCTTTGAAGCATGTGATCTACTCCCT, 1.14. As for AGGTCTCGAGGCCTCTTTATCTCCTCCCCT, the figure is 3.34. The figure for TGTTTTTATTTCCCCTTTCTGTTGGAAGCT is 1.42; for ACAAAGCTCTGCATCCTTCCCTAAGCAGCT it is -1.28; for GCAGCTCTGCGTCTTACTAAATGCAGCCTT it is -1.3. As for CCAAGACTCGCGATAACCCTCTGGGGCCGG, the binding signal (log2 normalized intensity) was -1.3.

Take ACACGCATGGCCGGCAGCAGCCTTGCCTTT: the binding signal (log2 normalized intensity) is -1.31. For the sequence GGACTTGAGGTCTTATCTTTAGGCCAAACA, the binding signal (log2 normalized intensity) was 0.513. The figure for ACAAAGAAAGCCAAAGTTCACCCTTTCGCC is 2.44; for ATGGGACATTGCATTCCACCCTGGCAGAGG it is -1.29; for ACTGATTCTCAGGCATCTCTGGGGGTCAGA it is 3.42.
